The values below are quoted from earlier work in publication PMC11006913.

Where a chain is given by its changes, count along the chain named. This is one part of the list.

Details in all cases: PBM; conditions not shown; double strand, one strand shown; scale: upbm affinity estimate (log intensity, higher = more binding, comparable within an allelic series)
Series [1] has as its target ARX (Homo sapiens) (UniProt Q96QS3).
The target of series [2] is ARX L343Q (Homo sapiens) (UniProt Q96QS3).
Series [3] deals with ARX P353L (Homo sapiens) (UniProt Q96QS3).
Series [4] deals with ARX P353R (Homo sapiens) (UniProt Q96QS3).
Series [5] deals with ARX R332H (Homo sapiens) (UniProt Q96QS3).
Series [6] deals with ARX T333N (Homo sapiens) (UniProt Q96QS3).
Series [7] deals with T1, HESX1 E149K (Homo sapiens) (UniProt Q9UBX0).
T1 sequence: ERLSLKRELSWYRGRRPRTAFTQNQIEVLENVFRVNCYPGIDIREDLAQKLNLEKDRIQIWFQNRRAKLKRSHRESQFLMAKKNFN

Series [8] addresses T2, HESX1 N125S (Homo sapiens) (UniProt Q9UBX0).
T2 sequence: T1 sequence with N31S, K55E

Series [9] concerns the target T3, HESX1 R160C (Homo sapiens) (UniProt Q9UBX0).
T3 sequence: T1 sequence with K55E, R66C

Series [10] addresses ISX (Homo sapiens) (UniProt Q2M1V0).
The target of series [11] is ISX R83Q (Homo sapiens) (UniProt Q2M1V0).
Series [12] has as its target PROP1 R112Q (Homo sapiens) (UniProt O75360).
Series [13] concerns the target PROP1 R99Q (Homo sapiens) (UniProt O75360).
The target of series [14] is HOXD13 I297V (Homo sapiens) (UniProt P35453).
The target in series [15] is HOXD13 I322L (Homo sapiens) (UniProt P35453).
The target in series [16] is HOXD13 N298S (Homo sapiens) (UniProt P35453).
Series [17] has as its target HOXD13 Q325K (Homo sapiens) (UniProt P35453).
Series [18] addresses HOXD13 Q325R (Homo sapiens) (UniProt P35453).
For series [19], the target named is HOXD13 R306W (Homo sapiens) (UniProt P35453).
The target in series [20] is HOXD13 S316C (Homo sapiens) (UniProt P35453).

On to CATAATTA [8-mer CATAATTA], for which the binding signal is 13 in [1]; 11 in series [2]; 12.6 in series [3]; 10.9 in [4]; 11.1 in series [5]; 12.1 in [6]. Also, the binding signal in [7] is 11.7; in [8], 12.3; in series [9] it was 10.5; in [10] it was 15.3; in series [11] it was 13.9; in series [12], 12.8. Also, the binding signal in series [13] is 12.3.

On to CGCGCCCC [8-mer CGCGCCCC], for which the binding signal in [1] is 10.1; in [2] it was 9.96; in series [3], 10; in [4], 9.88; in [5], 10; in [6] it was 10.1. For the same sequence, the binding signal is 9.79 in series [7]; 7.86 in series [8]; 9.98 in series [9]; 9.2 in series [14]; 9.16 in [15]; 9.12 in series [16]. Further, the binding signal in series [17] is 9.29; in series [18], 9.2; in series [19], 9.19; in series [20], 9.2.

Regarding CTAATTAA [8-mer CTAATTAA], the binding signal was 13.3 in series [1]; 11 in [2]; 13.1 in series [3]; 10.9 in [4]; 11.2 in series [5]; 12.7 in [6]. Also, the binding signal was 12.1 in series [7]; 13.7 in series [8]; 10.3 in series [9]; 12.3 in series [14]; 12.5 in series [16]; 12.1 in series [18]. Besides, the binding signal was 12.2 in series [20]; 15.5 in series [10]; 15.6 in series [11]; 12.9 in [12]; 12.5 in [13].

ATTAATTA [8-mer ATTAATTA]: the binding signal in [1] was 13.3; in series [2], 11; in series [3] it was 12.9; in [4], 10.9; in series [5], 11.3; in [6], 12.6. Further, the binding signal in series [7] was 12.1; in series [8] it was 13.8; in series [9], 10.5; in [14] it was 12.4; in series [15] it was 11.5; in series [16], 12.6. Further, the binding signal was 11.5 in [17]; 11.9 in [18]; 11.8 in series [19]; 12.3 in series [20]; 15.6 in series [10]; 15.3 in [11]. Moreover, the binding signal is 13.1 in [12] and 12.5 in series [13].

As to TTAATTAA [8-mer TTAATTAA], the binding signal is 13.2 in series [1]; 10.8 in series [2]; 12.8 in series [3]; 10.7 in series [4]; 11.2 in [5]; 12.5 in series [6]. Further, the binding signal in [7] was 12.1; in series [8] it was 14; in series [9], 10.4; in series [19], 11.5; in [10], 15.5; in series [11], 15.7. Besides, the results for the binding signal in [12] and in [13] were 12.9 and 12.3, respectively.

On to AATAGATT [8-mer AATAGATT], for which the binding signal in series [1] was 11.7; in [2] it was 10.8; in [3] it was 11.5; in [4], 10.8; in series [5], 11; in [6], 11.3.

In the case of CCCTCCCG [8-mer CCCTCCCG], the binding signal in [1] was 9.99; in series [2], 10; in series [3], 10; in [4], 10; in [5] it was 10.1; in [6], 10.2. Also, the binding signal was 9.88 in series [7]; 7.9 in series [8]; 10.1 in series [9]; 9.26 in [14]; 9.38 in [15]; 9.13 in series [16]. The binding signal in series [17] was 9.52; in series [18], 9.3; in series [19], 9.38; in series [20] it was 9.32; in [10] it was 9.71; in series [11], 9.61.

With AATTAATA [8-mer AATTAATA], the binding signal in series [1] is 12.8; in [2], 11; in series [3] it was 12.4; in series [4], 10.8; in [5], 11.2; in series [6], 12.1. In addition, the binding signal in series [7] was 11.4; in [8] it was 11.7; in [9], 10.4; in series [14] it was 12.4; in series [15], 11.6; in [16], 12.7. Moreover, the binding signal was 12 in series [17]; 12.2 in [18]; 11.9 in series [19]; 12.4 in series [20]; 15 in series [10]; 14 in series [11]. Besides, the binding signal in series [12] was 12.7; in series [13], 12.1.

On to ATTAATTG [8-mer ATTAATTG], for which the binding signal in [1] is 13; in series [2], 11; in series [3] it was 12.7; in [4] it was 10.9; in series [5] it was 11.2; in series [6], 12.3. For the same sequence, the binding signal in series [7] is 11.8; in series [8], 12.6; in [9], 10.4; in series [14] it was 12.3; in [15], 11.2; in [16] it was 12.4. Moreover, the binding signal in series [17] was 11.1; in series [18], 11.5; in series [19] it was 11.5; in [20], 12.1; in series [10] it was 15.4; in [11], 14.8. Besides, the figures for the binding signal in series [12] and in [13] were 12.9 and 12.3, respectively.
